# Data reported in PubChem BioAssay (Tox21).
# Where “and” joins values, the source holds several entries; their conditions need not be identical. Equal entries are not always repeated. Inconclusive means that the source gave no clear call. Such entries were picked first, then a sample of the others. For some of these results: Where the call is inconclusive, the potency comes from a doubtful curve fit. Some structures have more than one record in an assay (separate samples or runs), and their calls can disagree. Calls of active or inactive are those of the source. Unless noted, the call rests on the fitted dose curve; in most records, active means well fitted curve in the direction sought with a large enough effect in the repeat runs; inconclusive means weak or mixed curves; inactive means no such curve, though single readings can be large; an effect the other way counts as inactive or inconclusive. *1 amine or outer side, *2 acyl side, *3 side chain or, on linkers, in order; H or OH if unused. Where a SMILES comes first, the peptide text is derived from it. Bridges are numbered along the chain shown (N, C = ends). Roman numbers before positions name the chains, in order. [ ]: non-standard residue; d: D form. Actinocin(9to1) = Cc1c2oc3c(C)ccc(C(=O)[*:1])c3nc-2c(C(=O)[*:2])c(N)c1=O; NMeV = CN[C@H](C(=O)O)C(C)C; Sar = CNCC(=O)O
# Key:
# [1] = qHTS assay to identify small molecule agonists of the hypoxia (HIF-1) signaling pathway (AID 1224846; active means well fitted activation curve with a large enough effect in the signal ratio in the repeat runs, not every such curve was filed as active; inconclusive means weak or mixed curves; the % refers to the signal ratio; further: potency means the concentration at half of the fitted maximal effect; on activation: on the % scale 0 is the no-effect control and ±100 the full control effect); conditions: HRE-bla ME-180 cells, beta-lactamase ratio, 17 h; activation: at 76.8 µM (top of the series) unless noted
# Method in brief: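 Reporter induction in HRE-bla ME-180 cells is taken as agonism: cells sit 5 hrs after plating, receive compounds or DMSO only, incubate 17 hrs at 37C under 5% CO2, and are loaded with CCF4-AM for beta-lactamase FRET measurement.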
# [2] = qHTS RealTime-Glo MT Cell Viability Assay in HEK293 cells - 32 hour (AID 1224868); further: nearly all actives have a fitted effect of over 50% in size; further: potency means the concentration at half of the fitted maximal effect
# Method in brief: (§1)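 HEK293 cells seeded with NanoLuc/prosubstrate reagent, rested 5 h at 37 C, then dosed and kept at 37 C up to 40 h. Nonlytic real-time luminescence from viable cells read at 0, 8, 16, 24, 32 and 40 h.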
# [3] = qHTS RealTime-Glo MT Cell Viability Assay in HEK293 cells - 40 hour (AID 1224874); conditions: RealTime-Glo luminescence; max response: stronger effect = lower value; further: potency means the concentration at half of the fitted maximal effect; nearly all actives have a fitted effect of over 50% in size
# Method in brief: (§2)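 HEK293 + NanoLuc + prosubstrate, 600 cells/well; 5 h, 37 C/5% CO2; compound 23 nL in DMSO by pintool; 37 C; luminescence read at 0, 8, 16, 24, 32 and 40 h time points.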
# [4] = A CellTox Green Cytotoxicity Assay to monitor cytotoxicity in HepG2 cells - 24 hour (AID 1224878); further: nearly all actives have a fitted effect of over 45% in size; further: potency means the concentration at half of the fitted maximal effect; on Cytotoxicity: on the % scale 0 is the no-effect control and ±100 the full control effect
# Method in brief: (§3)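 Measurements at 0, 8, 16, 24, 32 and 40 h of treatment captured CellTox Green fluorescence in HepG2 cells that had been co-plated with reagent and preincubated 5 h at 37 C/5% CO2.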
# [5] = A CellTox Green Cytotoxicity Assay to monitor cytotoxicity in HepG2 cells - 40 hour (AID 1224879); further: potency means the concentration at half of the fitted maximal effect; nearly all actives have a fitted effect of over 40% in size
# Method in brief: as §3
# [6] = qHTS RealTime-Glo MT Cell Viability Assay in HEK293 cells - 16 hour (AID 1224872); further: potency means the concentration at half of the fitted maximal effect; nearly all actives have a fitted effect of over 50% in size
# Method in brief: as §1
# [7] = qHTS RealTime-Glo MT Cell Viability Assay in HepG2 cells - 24 hour (AID 1224867); further: nearly all actives have a fitted effect of over 50% in size; further: potency means the concentration at half of the fitted maximal effect
# Method in brief: (§4)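 HepG2 cells (600/well) were dispensed with RealTime-Glo reagents, incubated 5 h at 37 °C, then treated with compounds in DMSO for up to 40 h. Nonlytic NanoLuc luminescence reflecting viable cells was read at each stated time point.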
# [8] = qHTS RealTime-Glo MT Cell Viability Assay in HepG2 cells - 8 hour (AID 1224873); further: potency means the concentration at half of the fitted maximal effect; nearly all actives have a fitted effect of over 55% in size
# Method in brief: (§5)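 HepG2 cells (600/well) mixed with RealTime-Glo MT reagent, settled 5 h at 37 C/5% CO2 before compound addition. Nonlytic NanoLuc luminescence from viable-cell prosubstrate reduction read repeatedly during 40 h treatment at 37 C.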
# [9] = A CellTox Green Cytotoxicity Assay to monitor cytotoxicity in HepG2 cells - 16 hour (AID 1224876); further: nearly all actives have a fitted effect of over 45% in size; further: potency means the concentration at half of the fitted maximal effect
# Method in brief: as §3
# [10] = qHTS RealTime-Glo MT Cell Viability Assay in HepG2 cells - 32 hour (AID 1224877); further: potency means the concentration at half of the fitted maximal effect; nearly all actives have a fitted effect of over 55% in size
# Method in brief: as §4
# [11] = A CellTox Green Cytotoxicity Assay to monitor cytotoxicity in HEK293 cells - 0 hour (AID 1224869)
# Method in brief: (§6)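 Tox21 screen in HEK293: membrane-impermeant cyanine dye fluoresces on binding dead-cell DNA; compound pinned 5 h post-seeding, plates held at 37 C, signal read repeatedly through 40 h.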
# [12] = A CellTox Green Cytotoxicity Assay to monitor cytotoxicity in HEK293 cells - 40 hour (AID 1224871); further: potency means the concentration at half of the fitted maximal effect; nearly all actives have a fitted effect of over 45% in size
# Method in brief: as §6
# [13] = qHTS assay to identify small molecule antagonists of the estrogen related receptor (ERR) signaling pathway from Tox21 library (AID 1224848)
# Method in brief: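 Compounds dissolved in DMSO are pin-transferred onto ERR reporter cells (2,000 per well) that have settled for 6 h at 37 C. Plates then incubate 18 h at 37 C before ONE-Glo luciferase reagent and a luminescence read 30 min later.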
# [14] = qHTS RealTime-Glo MT Cell Viability Assay in HepG2 cells - 40 hour (AID 1224870); further: nearly all actives have a fitted effect of over 50% in size; further: potency means the concentration at half of the fitted maximal effect
# Method in brief: as §5
# [15] = qHTS RealTime-Glo MT Cell Viability Assay in HEK293 cells - 0 hour (AID 1224880); further: potency means the concentration at half of the fitted maximal effect; nearly all actives have a fitted effect of over 45% in size
# Method in brief: as §2
# [16] = qHTS assay to identify small molecule agonists of the estrogen related receptor (ERR) signaling pathway from Tox21 library (AID 1224849; calls by dose curve; further: on the % scale 0 is the no-effect control and ±100 the full control effect; nearly all actives have a fitted effect of over 15% in size); conditions: ERR reporter cell line, ONE-Glo luciferase, 18 h; at 92.4 µM (top of the series)
# Method in brief: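 Tox21 compounds tested for ERR agonism in an NTP reporter cell line: 18 h treatment at 37 C, then ONE-Glo luminescence.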
# [17] = A CellTox Green Cytotoxicity Assay to monitor cytotoxicity in HEK293 cells - 32 hour (AID 1224881); further: potency means the concentration at half of the fitted maximal effect; nearly all actives have a fitted effect of over 40% in size
# Method in brief: as §6
# Tags describe the fitted curve by direction and shape or compound fluorescence and quenching.
structure (smiles),measurement,setting,value
CC(=O)Oc1ccc(C2(c3ccc(OC(C)=O)cc3)Oc3ccccc3NC2=O)cc1,Potency,[1],"inconclusive: 6.74 µM [falling, partial curve, poor fit]"
same,Potency,[2],"inconclusive: 26.8 µM [cytotoxic, single point]"
same,Potency,[3],"inconclusive: 26.8 µM [cytotoxic, single point]"
same,Potency,[4],"inconclusive: 30.1 µM [activator, single point]"
same,Potency,[5],"inconclusive: 26.8 µM [activator, partial curve, poor fit]"
CC(COCC(C)OC(=O)c1ccccc1)OC(=O)c1ccccc1 (stereo unspecified),Potency,[1],inactive
same,Potency,[2],"inconclusive: 54.5 µM [cytotoxic, single point] and inconclusive: 43.6 µM [cytotoxic, partial curve]"
same,Potency,[6],"inconclusive: 54.5 µM [cytotoxic, partial curve] and inconclusive: 38.9 µM [cytotoxic, partial curve]"
same,Potency,[3],"inconclusive: 54.5 µM [cytotoxic, single point] and inconclusive: 43.6 µM [cytotoxic, partial curve]"
CC(C)=CCC/C(C)=C/CC/C(C)=C/C(=O)OCC(=O)[C@@]1(O)CC[C@H]2[C@@H]3CCC4=CC(=O)C=C[C@]4(C)[C@H]3[C@@H](O)C[C@@]21C,Potency,[1],"inconclusive: 26.8 µM [falling, single point]"
same,Potency,[7],"inconclusive: 21.3 µM [falling, single point]"
same,Potency,[6],active: 5.35 µM
same,Potency,[8],"inconclusive: 23.9 µM [falling, single point]"
same,Potency,[9],inactive
same,Potency,[10],"inconclusive: 21.3 µM [cytotoxic, partial curve, poor fit]"
CC(=O)CCC(C)C,Potency,[1],inactive
same,Potency,[11],active: 38.9 µM
same,Potency,[9],active: 38.9 µM
same,Potency,[4],inactive and active: 38.9 µM
CN1CC[C@H](c2c(O)cc(O)c3c(=O)cc(-c4ccccc4Cl)oc23)[C@H](O)C1,Potency,[1],"inconclusive: 0.338 µM [falling, full curve]"
same,Potency,[12],"inconclusive: 4.25 µM [activator, partial curve]"
same,Potency,[6],"inconclusive: 0.12 µM [cytotoxic, full curve]"
same,Potency,[4],active: 0.268 µM
same,Potency,[5],active: 0.239 µM
CC1COc2ccccc2N1 (stereo unspecified),Potency,[1],inactive
same,Potency,[2],"inconclusive: 43.6 µM [rising, partial curve, poor fit]"
same,Potency,[3],"inconclusive: 38.9 µM [rising, partial curve, poor fit]"
O=C(Nc1cccc([N+](=O)[O-])c1)c1cc2ccccc2cc1O,Potency,[1],"inconclusive: 11 µM [falling, full curve]"
same,Potency,[13],"inconclusive: 3.06 µM [inhibitor, full curve]"
same,Potency,[2],"inconclusive: 4.36 µM [cytotoxic, full curve]"
same,Potency,[6],"inconclusive: 4.36 µM [cytotoxic, full curve]"
same,Potency,[3],"inconclusive: 3.89 µM [cytotoxic, full curve]"
CCCCCCCC/C=C\CCCCCCCC(=O)OCCOC(=O)CCCCCCC/C=C\CCCCCCCC,Potency,[1],inactive
same,Potency,[14],inactive
same,Potency,[6],"inconclusive: 22.7 µM [cytotoxic, full curve]"
same,Potency,[15],"inconclusive: 45.3 µM [falling, partial curve]"
O=C1CCc2ccc(OCCCCN3CCN(c4cccc(Cl)c4Cl)CC3)cc2N1,Potency,[1],inconclusive: 30.1 µM [single point]
same,Potency,[7],"inconclusive: 26.8 µM [falling, single point]"
same,Potency,[14],"inconclusive: 30.1 µM [falling, single point]"
same,Potency,[12],"inconclusive: 26.8 µM [activator, single point]"
same,Potency,[6],active: 10.7 µM
same,Potency,[10],"inconclusive: 26.8 µM [cytotoxic, single point]"
same,Potency,[4],"inconclusive: 26.8 µM [activator, single point]"
same,Potency,[5],active: 26.8 µM
"Cc1c2oc3c(C)ccc(C(=O)N[C@@H]4C(=O)N[C@H](C(C)C)C(=O)N5CCC[C@H]5C(=O)N(C)CC(=O)N(C)[C@@H](C(C)C)C(=O)O[C@@H]4C)c3nc-2c(C(=O)N[C@@H]2C(=O)N[C@H](C(C)C)C(=O)N3CCC[C@H]3C(=O)N(C)CC(=O)N(C)[C@@H](C(C)C)C(=O)O[C@@H]2C)c(N)c1=O (I: T[dV]P[Sar][NMeV] / II: T[dV]P[Sar][NMeV]; ester I:1-I:C, II:1-II:C; linker I:N-II:N via Actinocin(9to1))",Potency,[1],"inconclusive: 6 µM [falling, full curve] and inconclusive: 169 nM [falling, full curve]"
same,Potency,[12],"inconclusive: 0.0107 µM [activator, full curve, poor fit]"
same,Potency,[8],active: 9.5 µM and active: 10.7 µM
same,Potency,[3],active: 8.5 nM and active: 16.9 nM
same,Potency,[10],"inconclusive: 8.47 µM [cytotoxic, full curve, poor fit] and inconclusive: 268 nM [cytotoxic, full curve, poor fit]"
same,Potency,[4],"inconclusive: 0.0169 µM [activator, single point]"
[O]=[Zr],Potency,[1],inactive
same,"activity change, positive = activation",[16],inactive: 5.09%
same,Potency,[7],inactive
same,Potency,[2],inactive
Cc1cccc2n[nH]nc12,Potency,[1],"inconclusive: 61.4 µM [falling, single point] and inconclusive: 54.9 µM [falling, single point]"
same,Potency,[7],inactive
same,Potency,[2],"inconclusive: 54.9 µM [cytotoxic, single point]"
same,Potency,[12],"inconclusive: 43.6 µM [activator, partial curve, poor fit]"
same,Potency,[3],"inconclusive: 54.9 µM [cytotoxic, single point]"
same,Potency,[5],"inconclusive: 38.9 µM [activator, partial curve]"
same,Potency,[17],"inconclusive: 49 µM [activator, partial curve, poor fit]"
